The campaign covered roughly 46,000 compounds. About 60 (0.1%) were called active. Roughly 3% stayed inconclusive and do not appear here. Calls follow the shape of the dose curve; as a rule, active = well fitted inhibition curve with a large enough effect; inconclusive = small, poorly fitted or top-dose-only effect; inactive = no such curve, though single readings can be large or run the other way. Some of the results follow.
assay: Primary qHTS assay for Inhibitors of ovarian cancer metastasis using an organotypic tumor microenvironment (TME) model.; also: nearly all actives have a fitted effect of over 65% in size;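 as to Potency: count of GFP cancer cells still attached after washing and fixation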;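 as to activity change, negative = inhibition: plate controls were DMSO wells for no effect and tomatine positive control wells for full effect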; conditions: SKOV3ip1-GFP adhesion/invasion on 3D omental model, fluorescence; series mostly up to 45.8 µM; activity change, negative = inhibition: at the top concentration
Method in brief: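 A 3D layer of primary human omental fibroblasts, mesothelial cells, fibronectin and collagen I, grown 48 hr, received SKOV3ip1-GFP cells in serum-free medium plus compounds at 0.36-46 umol/L. After 2 hr RT and 16 hr 37 C, fixed adherent GFP cells were counted; normalized to DMSO and tomatine.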
Potency is read from the fitted curve at half-maximal effect.

Compound	activity change, negative = inhibition	outcome	Potency
COc1ccc(NC(=O)C2CCN(S(=O)(=O)c3ccc4c(c3)CCCC(=O)N4)CC2)c(OC)c1	inactive: 8.3%	–	–
CCC(C(=O)Nc1ccc(C(=O)OC)cc1)n1nc(-c2ccc(C)c(C)c2)ccc1=O (centres undefined)	inactive: 2.75%	–	–
COc1cc(OC)cc(C(=O)Nc2cc(-c3nc4cccnc4s3)ccc2C)c1	inactive: -17.4%	–	–
Cc1c(C(=O)OC2CCCCCC2)[nH]c2c1C(=O)CC(c1ccc(N(C)C)cc1)C2 (centres undefined)	inactive: -12.7%	–	–
Cc1oc(C)c2c(=O)cc(-c3ccc4c(c3)OCO4)cc(OC(=O)c3cccc(Cl)c3)c12	inactive: 0.44%	–	–
O=C(c1ccccc1Br)N1CCC(c2nc3ccccc3o2)CC1	–	inactive	–
Cc1ccc(Cn2c(=O)n(-c3cc(C)cc(C)c3)c(=O)c3oc4ccccc4c32)cc1	inactive: -4.5%	–	–
Cc1ccc(S(=O)(=O)NCc2ccc(C(=O)NCCc3cccc(C)c3)cc2)cc1	–	inactive	–
COc1ccc(S(=O)(=O)N(Cc2nc(-c3ccc(Cl)cc3)no2)C2CCCCC2)cc1	–	inactive	–
N#Cc1c(C(F)(F)F)cc(-c2cccs2)nc1SCC(=O)Nc1cccc(C(F)(F)F)c1	inactive: -25.4%	–	–
O=C(Cn1c(SCC(=O)Nc2ccc(F)cc2)nc2ccccc21)NCc1ccccc1Cl	inactive: -11.7%	–	–
COc1ccc(OC)c(NC(=O)CSc2nc3ccccc3c(=O)n2CCC(=O)NC2CCCCC2)c1	–	inactive	–
CCCCOC(=O)c1cccc(NC(=O)/C=C/c2ccccc2Cl)c1	inactive: -23.9%	–	–
Nc1ccccc1NC(=O)c1ccc(CNc2nccc(-c3cccnc3)n2)cc1	inactive: 30.1%	–	–
CN1C(=O)C(C)(C)c2cc(S(=O)(=O)N3CCCC3C(=O)Nc3ccc(F)cc3)ccc21 (centres undefined)	inactive: 3.1%	–	–
CCOC(=O)COc1ccc(F)cc1C(=O)c1ccn2nc(-c3ccc(C)cc3)cc2n1	–	inactive	–
COc1cc(C(=O)N(Cc2cccnc2)c2nc3cc(C)c(C)cc3s2)cc(OC)c1OC	–	inactive	–
Cc1ccsc1CN(C(=O)COc1cccc(C)c1C)C1CCS(=O)(=O)C1 (centres undefined)	inactive: -4.25%	–	–
COc1cc(Cl)c(C)cc1NC(=O)c1sc2nc(C)cc(C)c2c1N	inactive: 2.85%	–	–
COc1ccccc1NC(=O)C(Cc1ccccc1)NS(=O)(=O)c1cccc2nsnc12 (centres undefined)	inactive: -3.33%	–	–
CC(C)(C)OC(=O)Nc1ccc(-c2cc(C(=O)NCCCCCCC(=O)NO)no2)cc1	inactive: 1.56%	–	–
Cc1ccc(N2CCN(C(=O)NCc3noc4ccc(C)cc34)CC2)c(C)c1	inactive: 14.7%	–	–
Cc1ccccc1C(=O)N(Cc1ccc(N(C)C)cc1)CC1CCCO1 (centres undefined)	–	inactive	–
Cc1cccc(NC(=O)c2ccc(CNS(=O)(=O)c3ccc4c(c3)C(C)(C)C(=O)N4C)cc2)c1	inactive: -22.9%	–	–

Compound	activity change, negative = inhibition	outcome	Potency
O=C(CCC1N=C2c3ccccc3N=C(SCC(=O)Nc3ccc(F)cc3)N2C1=O)NCc1cccs1 (centres undefined)	inactive: -6.72%	–	–
Cc1ccc(CNC(=O)c2sc3nc4n(c(=O)c3c2C)CCCCC4)cc1	inactive: 41.1%	–	–
COC(=O)c1ccccc1NC(=O)C1CCCN(c2ncnc3onc(C)c23)C1 (centres undefined)	inactive: 5.44%	–	–
O=C(NCCOCCn1c(=O)oc2ccccc21)Nc1cccc(Cl)c1	–	inactive	–
COc1ccccc1N=C1SC(C(=O)Nc2ccccc2OC)CC(=O)N1C (centres undefined)	inactive: 3.27%	–	–
CCOC(=O)c1noc2ncnc(NCc3ccccc3OC)c12	–	inactive	–
COc1ccccc1NC(=O)CSC1=Nc2ccccc2C2=NC(CC(=O)NCc3ccc4c(c3)OCO4)C(=O)N12 (centres undefined)	inactive: -2.63%	–	–
Cc1ccc(-n2nc(C(=O)N(C)Cc3ccccc3)c3c4ccccc4n(C)c3c2=O)cc1	–	inactive	–
Cc1ccc(C(=O)N(c2ccc(C)cc2)S(=O)(=O)c2ccc(Cl)cc2)cc1	inactive: -2.8%	–	–
O=c1c2ccccc2n2c(-c3ccccc3F)nnc2n1CCc1ccccc1	inactive: 2.35%	–	–
COc1cc(OC)c(N(C)C(=O)c2cc3c(=O)oc4ccccc4c3s2)cc1Cl	inactive: 5.65%	–	–
CC(C)c1ccc(NC(=O)c2ccc3c(O)c(S(=O)(=O)c4ccccc4)c(=O)[nH]c3c2)cc1	inactive: -3.67%	–	–
Cc1ccc(NC(=O)C(Cc2ccccc2)N2Cc3ccccc3C2=O)cc1Cl (centres undefined)	inactive: 4.09%	–	–
Cc1ccc(-n2c(=O)c3c(c4cc(C)ccc4n3C)n(Cc3ccc(F)cc3)c2=O)cc1	inactive: -1.44%	–	–
CCCn1c(CCC(=O)Nc2ccc(C)c(Cl)c2)nc2cccnc21	inactive: -17.5%	–	–
Cc1oc(-c2ccc(C(=O)NCc3ccccc3Cl)cc2)nc1CN1CCc2ccccc21	–	inactive	–
COc1ccc(C)cc1NC(=O)c1cc(S(=O)(=O)N2CCc3ccccc3C2)ccc1F	inactive: 13.5%	–	–
CCN(C(=O)c1c(C)oc2ncn(CC(C)C)c(=O)c12)c1cccc(Cl)c1	inactive: 4.29%	–	–
CCCCNC(=O)CCn1c(=O)c2cccn2c2cccnc21	inactive: -6.33%	–	–
Cc1ccc(S(=O)(=O)C(CNC(=O)C(=O)NCCc2ccc(Cl)cc2)c2cccs2)cc1 (centres undefined)	inactive: -0.627%	–	–
Cc1ccc(CCNC(=O)c2c[nH]c3ccc(S(=O)(=O)Nc4cccc(C(F)(F)F)c4)cc3c2=O)cc1	inactive: -4.3%	–	–
CCC1=C(c2ccc(C)cc2)S(=O)(=O)N=C1N1CCC(C(=O)NCCc2ccc(Cl)cc2)CC1	inactive: 1.94%	–	–
O=C(CC1N=C2c3ccccc3N=C(SCc3cccc(Cl)c3)N2C1=O)NCCc1ccccc1 (centres undefined)	inactive: 0.261%	–	–
COc1ccc(C(CC(=O)Nc2cc(OC)c(OC)c(OC)c2)N2Cc3ccccc3C2=O)cc1 (centres undefined)	inactive: 0.595%	–	–

Compound	activity change, negative = inhibition	outcome	Potency
O=C(Nc1cnn(Cc2ccc(Cl)cc2Cl)c1)c1noc2c1CCc1ccccc1-2	–	inactive	–
O=C(CCS(=O)(=O)c1cc2c3c(c1)CCN3C(=O)CC2)Nc1cccc(Br)c1	–	inactive	–
CCOc1ccc(CCNC(=O)c2ccc3c(c2)N(Cc2ccccc2F)C(=O)c2ccccc2S3=O)cc1OCC (centres undefined)	inactive: -11.7%	–	–
COc1ccc(CCNS(=O)(=O)c2cc(-c3onc(C)c3C)ccc2OC)cc1OC	inactive: 4.86%	–	–
O=C(Cn1c(=O)nc(-c2ccccc2)c2cc(Cl)ccc21)NCc1ccc(Cl)cc1	inactive: 14.1%	–	–
CCCS(=O)(=O)N1CC(=O)N(c2ccc(C)cc2C)C(C)(C(=O)NC2CCCCCC2)C1 (centres undefined)	–	inactive	–
O=c1c(S(=O)(=O)c2ccccc2)cn(Cc2cccc(F)c2)c2cc(N3CCCC3)c(F)cc12	inactive: 32.7%	–	–
COc1ccccc1N1CCN(S(=O)(=O)CCNC(=O)Cc2ccc(Cl)cc2)CC1	inactive: -1.69%	–	–
CCOC(=O)N1CCc2c(sc(NCc3cccs3)c2C(=O)Nc2ccc(OC)cc2OC)C1	inactive: -1.03%	–	–
CCCCN(C)CCNC(=O)CN1C(=O)CSc2ccc(S(=O)(=O)N3CCCCC3)cc21	–	inactive	–
Cc1cc2c(cc1S(=O)(=O)CCC(=O)N1CCCCC1C)OCC(=O)N2 (centres undefined)	–	inactive	–
O=C(COCc1cc(-c2ccc3c(c2)OCO3)on1)Nc1cc(C(F)(F)F)ccc1Cl	inactive: -0.0558%	–	–
CCN1CCN(CCCNC(=O)Cn2c(-c3cccs3)cc3cc(F)ccc32)CC1	inactive: 7%	–	–
CCc1ccc(NC(=O)CSc2nc(=O)n(Cc3ccncc3)c3c2CCC3)cc1	inactive: -1.07%	–	–
Cc1ccc(C)c(Nc2nn3c(=O)c4cc5c(cc4nc3s2)OCO5)c1	inactive: 3.55%	–	–
Cc1ccc2oc(=O)n(Cc3ccccc3Cl)c2c1	inactive: 1.94%	–	–
Cc1ccc2oc(-c3cc(NC(=O)c4oc5ccccc5c4C)ccc3Cl)nc2c1	inactive: -7.58%	–	–
CN(Cc1ccc(F)cc1)S(=O)(=O)c1nnc(NC(=O)c2ccccc2)s1	–	inactive	–
CCCNC(=O)C1CCC(CNS(=O)(=O)c2ccc3c(c2)CC(C)N3C(C)=O)CC1 (centres undefined)	inactive: 4.59%	–	–
Clc1cccc(-n2nnnc2NCc2ccccc2Oc2ccccn2)c1Cl	inactive: 0.741%	–	–
CCc1ccc(OCC(=O)Nc2cc(-c3nc4cc(C)ccc4o3)ccc2C)cc1	inactive: 2.47%	–	–
Cc1ccc(C(=O)NCc2ccccc2)cc1NC(=O)c1nsc2ccccc12	inactive: 2.4%	–	–
CCOc1ccc(Nc2ncnc3scc(-c4ccc(OC)cc4)c23)cc1	inactive: 16.2%	–	–
Cc1ccc(NC(=O)c2oc3ccccc3c2NC(=O)C23CC4CC(CC(C4)C2)C3)cc1	inactive: -6.98%	–	–

Compound	activity change, negative = inhibition	outcome	Potency
Cc1cc(-c2ccc(C)c(S(=O)(=O)NCc3cccs3)c2)on1	inactive: -18.8%	–	–
CCc1ccc(N2C(=O)CN(S(=O)(=O)CC)CC2(C)C(=O)NC2CCCCC2)cc1 (centres undefined)	inactive: -4.29%	–	–
Cn1cc(C(=O)NCCc2ccccc2)c(=O)c2cc(S(=O)(=O)N3CCCCC3)ccc21	inactive: 3.64%	–	–
CC(C)(C)OC(=O)N1CCC(c2c(C(=O)N3CCN(Cc4ccccc4)CC3)cnn2-c2ccc(Cl)cc2)CC1	–	inactive	–
CCOC(=O)c1c(C)[nH]c(C)c1S(=O)(=O)N1CCC(C(=O)Nc2ccc(C)c(N(C)C)c2)CC1	inactive: 17.2%	–	–
CCC1CCCCN1C(=O)CCS(=O)(=O)c1cc2c(cc1C)NC(=O)CO2 (centres undefined)	–	inactive	–
O=c1c2oc3ccccc3c2n(Cc2ccc(Cl)cc2)c(=O)n1Cc1ccccc1	inactive: 6.46%	–	–
Cc1ccc(Nc2c(-c3ccc(C)o3)nc3cccc(C)n23)cc1	inactive: -25.6%	–	–
CC=CCC=CCCC(=O)[C@H]1O[C@@H]1C(N)=O	inactive: -0.0997%	–	–
O=C(CNC(=O)c1ccccc1)OCc1cc(=O)n2nc(C3CC3)sc2n1	–	inactive	–
COc1ccc(-c2cc(=O)oc3c4c(ccc23)OCN(Cc2ccccc2)C4)cc1	inactive: 4.7%	–	–
O=C(Nc1cc(F)ccc1F)c1ccc(CN2CC(=O)N3CCCCC3C2=O)cc1 (centres undefined)	–	inactive	–
CCS(=O)(=O)c1ncc(Cl)c(C(=O)NCc2ccccc2)n1	–	–	active: 10 µM
Cc1cc(C)cc(-n2c(SCC(=O)N3CCCCCC3)nc3c([nH]c4ccccc43)c2=O)c1	–	inactive	–
O=C(Nc1cccc(C(F)(F)F)c1)C1CCN(S(=O)(=O)c2cccs2)CC1	inactive: -5.96%	–	–
CC(=O)c1ccc(NC(=O)CSc2nnc(N)s2)cc1	–	inactive	–
COc1cc(Cl)c(C)cc1NC(=O)Cn1c(C)c2cnn(-c3ccccc3)c(=O)c2c1C	–	inactive	–
CC(=O)Nc1c(C)nn(-c2ccccc2)c1N1CCC(C(=O)NCc2ccc(F)cc2)CC1	–	inactive	–
C=C(C)Cn1c(SCC(=O)c2ccccc2)nc2sc3c(c2c1=O)CCCC3	inactive: -7.52%	–	–
CCn1cc2nc(SCc3cccc(C(F)(F)F)c3)n(Cc3ccc(OC)cc3)c(=O)c2n1	inactive: -9.02%	–	–
COc1cc2c(cc1NC(=O)COc1ccc(Cl)cc1)oc1ccccc12	inactive: 11.2%	–	–
O=C(Nc1ccc(F)cc1)c1cc2cc3ccc(Cl)cc3nc2o1	inactive: 4.87%	–	–
